Experimental data from US5458889A (priority 1986, dated 1995).

Key:
cells = assay: Cell toxicity (Test 16); format: cell-based; conditions: type 2 herpes simplex virus section
Description: The following results were obtained:

cytomegalo virus = test system: cytomegalo virus
Description: (§1) Virucidal activity according to the AFNOR Standard:

[1] = test system: type 2 herpes simplex virus
Description: as §1

Streptococcus Faecalis = format: cell-based

| Substance | Cell Toxicity (cells) | Inhibitory concentration (cytomegalo virus) | Inhibitory concentration [1] | effect of the serous proteins upon the efficiency of benzalkonium chloride (Streptococcus Faecalis) |
| --- | --- | --- | --- | --- |
| Benzalkonium chloride | 0.05% | 0.01 % by weight | 0.01 % by weight | unfavourable effect of the serous proteins |
| Benzalkonium fluoride | 0.08% | 0.0075 % by weight | 0.0075 % by weight |  |
